Compound in the assay: CC[C@H](Nc1ncnc2[nH]cnc12)c1nc2cccc(F)c2c(=O)n1-c1ccccc1 [CAL-101]
Kind of assay: Viability of human cancer cell lines after 72 h of drug (GDSC screen). The protocol:
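Human cancer cell lines in 384-well plates, medium with 10% serum, drug for 72 h over a 256-fold dose range (nine 2-fold or five 4-fold steps up to the top dose). Adherent lines were fixed and stained with the nucleic acid dye Syto60, suspension lines read with resazurin; signal relative to control wells, capped at 0 and 100%. One two-parameter sigmoid per drug and line, fitted in a mixed model over all curves with the slope shared within a line.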

In general, IC50 refers to the concentration needed to halve the response being measured.

IC50 is the fitted dose that halves viability relative to control wells, and lower means more sensitive; fits outside the tested doses are given as limits. AUC sums up the same curve from the lowest dose to the 256-fold higher top dose; it is 1 without any effect and falls as sensitivity rises. Where only a bound is given, the exact number is not on record here.

As to “PF-382 (T-cell lymphoblastic leukaemia, suspension, top dose 20 µM)”, the AUC worked out at 0.853 and the IC50 stood at 12.6 µM.

With “PFSK-1 (medulloblastoma, adherent, top dose 20 µM)”, the AUC was 0.957 and the IC50 was more than 20 µM.

“PL4 (pancreas, adherent, top dose 20 µM)”: the AUC worked out at 0.964 and the IC50 is more than 20 µM.

For “PL18 (pancreas, adherent, top dose 20 µM)”, the AUC was found to be 0.988 and the IC50 was more than 20 µM.

With “PL-21 (acute myeloid leukaemia, suspension, top dose 20 µM)”, the AUC worked out at 0.714 and the IC50 stood at 5.65 µM.

Take “PSN1 (pancreas, adherent, top dose 20 µM)”: the AUC came to 0.961 and the IC50 was more than 20 µM.

Regarding “QGP-1 (pancreas, adherent, top dose 20 µM)”, the AUC turned out to be 0.951 and the IC50 is more than 20 µM.

Regarding “QIMR-WIL (acute myeloid leukaemia, suspension, top dose 20 µM)”, the AUC was determined as 0.515 and the IC50 was found to be 1.37 µM.

As to “RC-K8 (B-cell lymphoma, suspension, top dose 20 µM)”, the AUC stood at 0.993 and the IC50 is more than 20 µM.

Consider “RCC10RGB (kidney, adherent, top dose 10.24 µM)”, for which the AUC was found to be 0.943 and the IC50 is more than 10.2 µM.

In the case of “RCC-AB (kidney, adherent, top dose 20 µM)”, the AUC is 0.758 and the IC50 turned out to be 8.98 µM.

Regarding “RCC-ER (kidney, adherent, top dose 20 µM)”, the AUC stood at 0.916 and the IC50 was more than 20 µM.

On to “RCC-FG2 (kidney, adherent, top dose 20 µM)”, for which the AUC came out at 0.867 and the IC50 was more than 20 µM.

As to “RCC-JF (kidney, adherent, top dose 20 µM)”, the AUC turned out to be 0.832 and the IC50 was found to be 15 µM.

As for “RCC-JW (kidney, adherent, top dose 20 µM)”, the AUC was 0.889 and the IC50 is more than 20 µM.

As to “RCC-MF (kidney, adherent, top dose 20 µM)”, the AUC turned out to be 0.895 and the IC50 was more than 20 µM.

Consider “RCM-1 (large intestine, adherent, top dose 20 µM)”, for which the AUC came to 0.985 and the IC50 is more than 20 µM.

As to “RD (rhabdomyosarcoma, adherent, top dose 20 µM)”, the AUC came to 0.965 and the IC50 was more than 20 µM.

Take “REH (B-cell leukaemia, suspension, top dose 20 µM)”: the AUC turned out to be 0.808 and the IC50 worked out at 9.83 µM.

Consider “RERF-GC-1B (stomach, adherent, top dose 20 µM)”, for which the AUC was found to be 0.98 and the IC50 is more than 20 µM.

With “RERF-LC-KJ (lung adenocarcinoma, adherent, top dose 20 µM)”, the AUC came out at 0.965 and the IC50 is more than 20 µM.

As to “RERF-LC-MS (lung adenocarcinoma, adherent, top dose 20 µM)”, the AUC was determined as 0.971 and the IC50 was more than 20 µM.

For “RERF-LC-Sq1 (lung squamous cell carcinoma, adherent, top dose 20 µM)”, the AUC came out at 0.936 and the IC50 is more than 20 µM.

Regarding “RF-48 (stomach, adherent, top dose 20 µM)”, the AUC came to 0.786 and the concentration for half-maximal inhibition (IC50) is 9.74 µM.

Take “RH-1 (rhabdomyosarcoma, adherent, top dose 20 µM)”: the AUC worked out at 0.951 and the IC50 is more than 20 µM.

In the case of “RH-18 (rhabdomyosarcoma, adherent, top dose 20 µM)”, the AUC was found to be 0.808 and the IC50 turned out to be 12.2 µM.

As for “RH-41 (rhabdomyosarcoma, adherent, top dose 20 µM)”, the AUC came to 0.992 and the IC50 was more than 20 µM.

Turning to RKN (ovary, adherent, top dose 20 µM), the AUC was determined as 0.879 and the IC50 was more than 20 µM.

For the cell line “RKO (large intestine, adherent, top dose 20 µM)”, the AUC was determined as 0.95 and the IC50 is more than 20 µM.

For “RL95-2 (endometrium, adherent, top dose 20 µM)”, the AUC stood at 0.987 and the IC50 is more than 20 µM.

On to “RL (B-cell lymphoma, suspension, top dose 20 µM)”, for which the AUC amounted to 0.908 and the IC50 is more than 20 µM.

With RMG-I (ovary, adherent, top dose 20 µM), the AUC stood at 0.849 and the IC50 is 18.9 µM.

Regarding “RO82-W-1 (thyroid, adherent, top dose 20 µM)”, the AUC amounted to 0.983 and the IC50 is more than 20 µM.

With “ROS-50 (B-cell leukaemia, suspension, top dose 20 µM)”, the AUC was determined as 0.975 and the IC50 is more than 20 µM.

“RPMI-2650 (head and neck, adherent, top dose 20 µM)”: the AUC turned out to be 0.977 and the IC50 is more than 20 µM.

Consider “RPMI-6666 (Hodgkin lymphoma, suspension, top dose 20 µM)”, for which the AUC turned out to be 0.298 and the IC50 was determined as 0.298 µM.

Consider “RPMI-7951 (melanoma, adherent, top dose 20 µM)”, for which the AUC turned out to be 0.837 and the IC50 turned out to be 12.9 µM.

On to “RPMI-8226 (myeloma, suspension, top dose 20 µM)”, for which the AUC was determined as 0.963 and the IC50 is more than 20 µM.

In the case of “RPMI-8402 (T-cell lymphoblastic leukaemia, suspension, top dose 20 µM)”, the AUC turned out to be 0.674 and the IC50 amounted to 3.49 µM.

In the case of “RPMI-8866 (chronic myeloid leukaemia, suspension, top dose 20 µM)”, the AUC worked out at 0.973 and the IC50 was more than 20 µM.

Consider “RS4-11 (leukaemia, suspension, top dose 20 µM)”, for which the AUC was determined as 0.759 and the IC50 came to 6.45 µM.

Turning to RT4 (bladder, adherent, top dose 20 µM), the AUC worked out at 0.98 and the IC50 was more than 20 µM.

Turning to “RT-112 (bladder, adherent, top dose 20 µM)”, the AUC came to 0.958 and the IC50 was more than 20 µM.

For the cell line “RVH-421 (melanoma, adherent, top dose 20 µM)”, the AUC was 0.862 and the IC50 was more than 20 µM.

As for “RXF393 (kidney, adherent, top dose 20 µM)”, the AUC came to 0.87 and the IC50 was more than 20 µM.

As for “Ramos-2G6-4C10 (Burkitt lymphoma, suspension, top dose 20 µM)”, the AUC was determined as 0.956 and the IC50 is more than 20 µM.

In the case of “SAS (head and neck, adherent, top dose 20 µM)”, the AUC amounted to 0.946 and the IC50 was more than 20 µM.

For “SAT (head and neck, adherent, top dose 20 µM)”, the AUC was determined as 0.919 and the IC50 is more than 20 µM.

Turning to “SBC-1 (small cell lung carcinoma, suspension, top dose 20 µM)”, the AUC was determined as 0.987 and the IC50 is more than 20 µM.

With “SBC-3 (small cell lung carcinoma, adherent, top dose 20 µM)”, the AUC amounted to 0.934 and the IC50 was more than 20 µM.

Turning to “SBC-5 (small cell lung carcinoma, adherent, top dose 20 µM)”, the AUC was 0.993 and the IC50 is more than 20 µM.

For the cell line “SCC90 (head and neck, adherent, top dose 20 µM)”, the AUC was 0.738 and the IC50 is 8.18 µM.

“SCC-3 (B-cell lymphoma, suspension, top dose 20 µM)”: the AUC came out at 0.996 and the IC50 was more than 20 µM.

In the case of “SCC-4 (head and neck, adherent, top dose 20 µM)”, the AUC was determined as 0.965 and the IC50 is more than 20 µM.

For “SCC-9 (head and neck, adherent, top dose 20 µM)”, the AUC was found to be 0.834 and the IC50 was 18.5 µM.

Turning to “SCC-15 (head and neck, adherent, top dose 20 µM)”, the AUC turned out to be 0.945 and the IC50 was more than 20 µM.

In the case of “SCC-25 (head and neck, adherent, top dose 20 µM)”, the AUC was 0.881 and the IC50 is more than 20 µM.

For the cell line SCH (stomach, adherent, top dose 20 µM), the AUC is 0.988 and the IC50 is more than 20 µM.

For the cell line “SF126 (glioma, adherent, top dose 20 µM)”, the AUC stood at 0.951 and the IC50 is more than 20 µM.

As to “SF268 (glioma, adherent, top dose 20 µM)”, the AUC came to 0.96 and the IC50 was more than 20 µM.

Turning to “SF295 (glioma, adherent, top dose 20 µM)”, the AUC came out at 0.946 and the IC50 was more than 20 µM.

For “SF539 (glioma, adherent, top dose 20 µM)”, the AUC came to 0.984 and the IC50 is more than 20 µM.

Turning to “SH-4 (melanoma, adherent, top dose 20 µM)”, the AUC worked out at 0.964 and the IC50 is more than 20 µM.

With “SHP-77 (small cell lung carcinoma, semi-adherent, top dose 20 µM)”, the AUC was determined as 0.897 and the IC50 is more than 20 µM.

Turning to “SIG-M5 (acute myeloid leukaemia, suspension, top dose 20 µM)”, the AUC turned out to be 0.716 and the IC50 came out at 4.25 µM.

As for “SIMA (neuroblastoma, adherent, top dose 20 µM)”, the AUC is 0.982 and the IC50 was more than 20 µM.

In the case of SISO (cervix, adherent, top dose 20 µM), the AUC was 0.982 and the IC50 was more than 20 µM.

Source of the values: the supplement of paper PMC4967469.
